Reference: the supplement of paper PMC3334620
Whole data set: some 33,000 sequences, median “E-score (-0.5 to 0.5)” near -0.043, cut for the highest 2% near 0.37. The list shows a part of the results.

What follows are sequences tested against T1, Upc2 (UniProt Q12151) (assay: PBM E-score (8-mer binding enrichment) (E-score (-0.5 to 0.5)); higher = stronger / more preferred TF binding; most listed sequences are background and not binding sites). Settings: protein concentration: 200 nM; construct: GST-full length.
T1 sequence: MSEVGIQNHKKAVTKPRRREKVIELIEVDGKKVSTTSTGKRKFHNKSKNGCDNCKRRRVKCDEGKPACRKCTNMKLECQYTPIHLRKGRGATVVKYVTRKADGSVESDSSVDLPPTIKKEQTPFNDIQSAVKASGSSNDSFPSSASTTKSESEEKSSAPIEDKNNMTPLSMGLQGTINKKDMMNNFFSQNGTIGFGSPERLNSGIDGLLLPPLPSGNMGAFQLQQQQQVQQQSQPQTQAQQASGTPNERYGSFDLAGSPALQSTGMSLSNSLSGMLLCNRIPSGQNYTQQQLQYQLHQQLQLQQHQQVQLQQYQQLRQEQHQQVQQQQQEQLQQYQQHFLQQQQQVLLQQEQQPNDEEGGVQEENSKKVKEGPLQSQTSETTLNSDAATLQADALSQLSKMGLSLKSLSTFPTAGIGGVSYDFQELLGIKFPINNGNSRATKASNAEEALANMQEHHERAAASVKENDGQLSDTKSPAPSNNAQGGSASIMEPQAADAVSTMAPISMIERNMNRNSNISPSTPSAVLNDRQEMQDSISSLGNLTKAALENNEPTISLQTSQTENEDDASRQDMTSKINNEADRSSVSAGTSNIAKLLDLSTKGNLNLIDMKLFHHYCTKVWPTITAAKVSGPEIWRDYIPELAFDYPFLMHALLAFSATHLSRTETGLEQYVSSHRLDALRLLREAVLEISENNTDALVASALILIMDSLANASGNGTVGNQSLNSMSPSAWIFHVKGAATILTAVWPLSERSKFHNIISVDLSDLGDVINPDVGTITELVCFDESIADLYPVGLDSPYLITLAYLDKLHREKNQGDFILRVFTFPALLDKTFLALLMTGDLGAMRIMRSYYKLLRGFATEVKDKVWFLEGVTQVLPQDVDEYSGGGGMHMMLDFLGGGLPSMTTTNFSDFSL
Method in brief: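 Bound GST-tagged yeast transcription factors, applied at about 100-200 nM to double-stranded universal all-10-mer Agilent arrays, were detected with fluorescent anti-GST. Scans were normalised with masliner. A modified Wilcoxon-Mann-Whitney statistic, the E-score, was assigned to each ungapped eight-base word pooled with its reverse complement by the Universal PBM Analysis Suite.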

Sequence | PBM E-score
AGCACGGG | -0.14
CATACCTA | -0.324
ACGTGCCG | 0.1
CAATAGAG | -0.00365
CCTCGTCG | 0.195
CAGGGGTC | -0.0983
TGGAGCCA | -0.179
AGATAGGC | 0.102
TACTAAGA | 0.062
AAGACTGG | -0.109
CGACAGAG | 0.0348
CGAGTCCG | 0.0814
CTGGAAAA | -0.119
CTGCGGAC | -0.189
CTAGTTAA | -0.133
AACTCGGC | 0.138
GGGTCCAC | -0.33
ACTGCAGA | -0.152
ACCACAGC | -0.112
CCTGATAG | -0.183
ATCGGTCC | -0.00666
AGAGCTCG | 0.216
GTCTCGGA | 0.162
AGGCTTGC | -0.252
CTTCAGGA | -0.0676

Sequence | PBM E-score
AGTCAAAA | -0.0553
CCAGCATA | -0.111
ACACTTCA | -0.0869
ATGATTCC | -0.0756
GAGTCGAA | 0.055
GGCGCGTA | 0.238
GATATTCC | -0.00881
CCCCCCTA | -0.262
CGCATATA | 0.205
TATGCACA | -0.00231
ACTTTACC | 0.0162
TGGGATAA | -0.284
TCCTAGGA | -0.319
AATGACAT | -0.147
TAAAGTAA | 0.0156
ACCTCAAG | -0.206
CATTGAAC | 0.189
CTTGACCC | -0.144
AGATCAGG | -0.0626
GTTCTATA | 0.162
CTTCATGC | -0.044
AGCGTCAC | -0.0383
ACCGCCAG | -0.0637
GAAAGTAA | 0.039
AAGTGACG | -0.0668

Sequence | PBM E-score
ACATCGGT | -0.133
AAGAGCAA | -0.137
CCCATAGA | -0.273
CGCTAAAA | 0.225
GTGCGCAC | 0.0494
TGGTTACA | 0.0964
ATACCTTC | -0.0711
ACCAGAAG | -0.129
ACAGACTA | 0.0641
GTAAATTA | 0.0975
CAGGCCGC | -0.167
ACCTTCAG | -0.0717
ATTCCAAT | -0.0975
AAGGCGCG | 0.0648
ATGCAATC | 0.0196
ATGGACTA | -0.0617
CGTATGAA | 0.405
CTTCTTTA | 0.0205
CACACGAA | 0.239
AAACCCGC | -0.0992
ATGCCGAG | 0.154
CCGGCTCA | -0.257
AACCGAAT | 0.277
ATCTGTCA | -0.0123
CTCGATTC | -0.0211

Sequence | PBM E-score
GCAAGTAA | -0.174
ATGGCTTC | -0.181
ACTGAGAC | -0.105
ATTACGCC | -0.108
AAATATCC | 0.0979
ACGCCGAC | 0.0662
CGGGTGGA | -0.0263
TCGGTTAA | 0.356
CTGCGAGC | -0.026
CACCTTGG | -0.289
ACGTGGGC | -0.0701
GCAGGCTA | -0.224
CTGCCGGA | -0.276
ATTTCCGG | 0.00823
ATCTTCAG | -0.0674
GTGTGGCA | -0.371
AAATTGGT | 0.0678
CACAGGTA | 0.116
CTACCTAC | -0.0272
CTGCCGGC | -0.261
GTGGAACA | 0.0251
AACTACTT | -0.18
CAAGCGGG | -0.144
GGGGTCAC | -0.214
AGAAATTA | 0.065

Sequence | PBM E-score
AGAGGAGA | -0.164
CAACGAAC | 0.257
TCTCCCCA | -0.16
ATGCCGGA | -0.0122
GGCCGGTA | -0.0202
TAAGGGTA | -0.127
CAATAACC | 0.0495
GAAACAGA | -0.0318
TACCCACA | -0.0512
TAGATTGA | 0.0547
ACTAAGCC | -0.16
CCATATCG | -0.00282
ACCCTTCA | -0.00307
CCTTATAG | 0.0464
GTGACAGA | 0.0515
ACTGAACG | 0.395
AACAGTAC | 0.131
CTTGAGGC | -0.247
ATTGTACA | -0.0603
TTATGCAA | -0.00146
AAGTACGC | 0.115
ACGCTGGC | 0.0502
GACTGTGC | 0.00477
CCCCTGCG | -0.182
CCGACCCA | -0.00267

Sequence | PBM E-score
CGCCGGCA | -0.161
CAAAGGCC | -0.206
ACGGGCCA | 0.0391
CAAGGACG | -0.255
ACCTAACA | 0.0599
GCTGCACA | -0.225
ACTTGAGG | -0.202
GAAACGAC | 0.423
AAAAAAAC | -0.00164
ACCCCGTA | 0.327
CCTTTTTC | -0.178
GTAGTTTA | 0.137
GAATAGCA | -0.0573
AGACAGTG | -0.17
AGACTTTA | -0.0691
AGCACAGA | -0.109
GAAATCTA | -0.0095
ATGTCTGG | -0.00617
CCTGTCGC | 0.0153
AGAATTCT | 0.136
AGGGAATG | -0.237
AGATCGGA | -0.0579
CCTGATTA | -0.0975
AATTGTCC | -0.0711
ACAGTACA | 0.0931

Sequence | PBM E-score
ACACAAAG | 0.0503
CAAGTATG | -0.0812
TCGAGCGA | 0.0406
CCGCACAC | -0.0323
CAAATCAA | -0.0805
AGCCTCCC | -0.184
ATACACTA | -0.0748
ATGTGGCG | -0.0487
GCCCTCGC | 0.219
GTGTATAA | 0.138
CCCGGGCC | -0.0985
CCGACTGA | 0.0637
AATAGGGT | 0.00758
CCGACGCC | -0.0132
CACACTCA | -0.116
ATTCGCGA | 0.277
CCCCCCCG | -0.178
AAAAGCCT | -0.282
ATAGTCAT | -0.0152
GAAGTCAA | -0.00967
AGCCTTTC | -0.232
ATTCAACA | -0.0241
